Hit rate of the full screen: of about 310,000 compounds, about 2,200 (0.71%) showed an effect of 50% or more. The effect is printed as a negative number. Some of the results follow. Where a SMILES comes first, the peptide text is derived from it. [ ]: non-standard residue; d: D form. The star is where a group is joined. ξ: configuration not given here. Boc = CC(C)(C)OC(=O)*; ξP = O=C(O)C1CCCN1
The molecules below were run against human ether-à-go-go-related gene (hERG) potassium channel (human, UniProt Q12809) (assay: primary screen, population patch clamp on CHO cells stably expressing hERG).
Chain of human ether-à-go-go-related gene (hERG) potassium channel (Q12809 whole entry, looked up): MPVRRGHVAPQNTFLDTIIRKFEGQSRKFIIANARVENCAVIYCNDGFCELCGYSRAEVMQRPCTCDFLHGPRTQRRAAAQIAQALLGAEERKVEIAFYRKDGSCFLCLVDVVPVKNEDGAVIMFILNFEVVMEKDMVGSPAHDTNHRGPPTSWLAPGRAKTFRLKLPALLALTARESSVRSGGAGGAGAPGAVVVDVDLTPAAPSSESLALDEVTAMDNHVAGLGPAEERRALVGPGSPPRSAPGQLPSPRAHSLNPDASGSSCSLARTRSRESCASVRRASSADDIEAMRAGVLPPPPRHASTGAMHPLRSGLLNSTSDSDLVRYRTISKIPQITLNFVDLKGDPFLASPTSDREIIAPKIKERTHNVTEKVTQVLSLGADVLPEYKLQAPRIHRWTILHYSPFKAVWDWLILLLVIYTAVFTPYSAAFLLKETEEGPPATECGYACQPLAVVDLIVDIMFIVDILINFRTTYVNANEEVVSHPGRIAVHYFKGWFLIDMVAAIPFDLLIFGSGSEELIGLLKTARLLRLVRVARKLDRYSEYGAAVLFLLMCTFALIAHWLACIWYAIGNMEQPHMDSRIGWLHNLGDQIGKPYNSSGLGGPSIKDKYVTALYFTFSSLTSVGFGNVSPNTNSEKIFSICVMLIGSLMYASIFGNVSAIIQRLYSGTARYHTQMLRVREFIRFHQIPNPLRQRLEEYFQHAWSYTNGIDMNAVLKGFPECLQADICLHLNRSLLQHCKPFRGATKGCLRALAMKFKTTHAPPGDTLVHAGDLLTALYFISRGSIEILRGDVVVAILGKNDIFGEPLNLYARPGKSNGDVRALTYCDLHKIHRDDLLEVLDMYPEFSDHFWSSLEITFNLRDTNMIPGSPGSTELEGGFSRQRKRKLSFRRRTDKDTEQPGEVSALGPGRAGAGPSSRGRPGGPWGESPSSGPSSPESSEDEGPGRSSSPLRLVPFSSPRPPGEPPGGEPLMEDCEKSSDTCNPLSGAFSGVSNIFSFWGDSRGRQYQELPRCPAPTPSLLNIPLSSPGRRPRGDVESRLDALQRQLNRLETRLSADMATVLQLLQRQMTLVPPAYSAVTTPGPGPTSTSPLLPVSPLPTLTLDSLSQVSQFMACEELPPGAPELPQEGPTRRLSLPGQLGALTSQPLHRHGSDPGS

| Compound | hERG current change (%, negative = inhibition) at 1uM [%] |
| --- | --- |
| CCOC(=O)CNC(=O)CNC(=O)c1ccc(OCC(C)C)cc1 | 5.76 |
| CCc1ccc(C=NC23CN4CN(CN(C4)C2)C3)s1 | 7.69 |
| O=C(CCCn1c(=O)c2cccn2c2cccnc21)N1CCN(c2ccccc2F)CC1 | 7.48 |
| CC(=O)c1cccc(NC(=O)N2CCC(NC(=O)C34CC5CC(CC(C5)C3)C4)CC2)c1 | 10.1 |
| CC(=O)Nc1ccc(S(=O)(=O)NC(CC(=O)NC2CCCCC2C)C(C)C)cc1 (stereo not drawn) | 9.89 |
| COc1ccccc1N=C1SCCCN1C.I | -16.4 |
| CCOC(=O)C1(Cc2cccc(F)c2)CCN(C(=O)C2CCCO2)CC1 (stereo not drawn) | 12 |
| CCOc1ccc(-n2c(N)c(C(=O)NCc3ccco3)sc2=S)cc1 | -2.01 |
| COC(=O)[C@@]12CCCN1[C@H](c1ccc(SC3CCCCC3)cc1)[C@H]1C(=O)N(C)C(=O)[C@H]12.O=C(O)C(F)(F)F | 13 |
| Cc1cccc(C)c1NC(=S)N(c1ccccc1)C(C)C | 9.36 |
| CSc1nsc(SC)c1NC(=O)OC1CCCCC1 | 1.08 |
| CCOC(=O)c1ccc(C(=O)OCC)c(NC(=S)Nc2ccc([N+](=O)[O-])cc2OC)c1 | 4.02 |
| Cn1cccc1Cc1nnc(SCC(=O)NCCc2ccccc2)n1C | 7.58 |
| O=C(Nc1cccc(F)c1)c1ccc(-c2ccccc2Cl)o1 | -6.29 |
| Cc1nonc1C1CCCN1Cc1nc(-c2ccc(F)cc2F)oc1C (stereo not drawn) | 10.8 |
| Cc1cccc(N2C(=O)CN(Cc3sccc3C)C2=S)c1 | 8.18 |
| O=C(CCCC(=O)OCC(Cl)=C(Cl)Cl)Nc1ccc(F)cc1 | 10.3 |
| COc1ccc(NC(=O)CN2C(=O)NC(C)(c3ccccc3)C2=O)cc1Cl (stereo not drawn) | -2.24 |
| CC(=O)c1cnc2cc(C)nn2c1C | 5.81 |

| Compound | hERG current change (%, negative = inhibition) at 1uM [%] |
| --- | --- |
| CCN(C(=O)CN1CCN(Cc2ccccc2)CC1)c1c(N)n(Cc2ccccc2)c(=O)[nH]c1=O | 23.3 |
| CC(=O)Nc1ccc(NC(=O)Nc2ccc(C)cc2C)cc1 | 10.9 |
| Cn1c(=O)[nH]c(=O)c2c1nc(CN1CCN(c3cccc(Cl)c3)CC1)n2Cc1ccccc1Cl | 14.3 |
| CCN(CC)c1ccc(CNc2ccc3c(c2)ncn3CC)cc1 | 10.9 |
| COC(=O)[C@@H](c1ccccc1)N(C)S(=O)(=O)c1cccc(S(=O)(=O)N(C)[C@@H](C(=O)OC)c2ccccc2)c1 | 10.1 |
| Cc1cc(-c2n[nH]c(=S)n2/N=C/c2cccc([N+](=O)[O-])c2)n[nH]1 | 12.4 |
| CCOC(=O)/C(C#N)=C/c1cccc(C)c1 | 10.9 |
| O=C(Cc1ccc(Cl)cc1)N1CCc2ccccc2C1 | 21.7 |
| COc1ccc(NC(=O)c2cccc([N+](=O)[O-])c2)cc1 | 16.6 |
| COC(=O)CNC(=O)C1CCCN1C(=O)OC(C)(C)C (stereo not drawn) (Boc-[ξP]-Gly-OMe) | 6.64 |
| Cc1nnc(SCC(=O)Nc2sccc2C(N)=O)n1Cc1ccccc1 | -6.83 |
| CC(C)CNC(=O)COC(=O)c1c2c(nc3ccccc13)CCC2 | 10.2 |
| CC(C)N1CCC(N2CCN(C3CCCCCC3)CC2CCO)CC1 (stereo not drawn) | 19.1 |
| Cl.NCCSC1CC(=O)N(Cc2ccc(F)cc2)C1=O (stereo not drawn) | -5.94 |
| CCN(CC(=O)NC(C)(C)C)C(=O)c1ccccc1SCC(=O)NC1CCCCCCC1 | 4.18 |
| O=C(NCc1ccc(Cl)cc1)Nc1ccc(F)cc1 | 16.1 |
| CCOc1ccccc1C(=O)Nc1ccsc1C(=O)OC | 11.8 |
| FC(F)(F)Oc1ccc(NC2=NCCCS2)cc1 | 10.6 |
| O=C(CN1CCCCC1)NNc1nc(-c2ccccc2)c2cc(Br)ccc2n1 | 7.14 |

| Compound | hERG current change (%, negative = inhibition) at 1uM [%] |
| --- | --- |
| NNC(=O)CS(=O)(=O)CS(=O)(=O)CC(=O)NN | 14.2 |
| CCN(CC)CC(O)CN1C(=O)NC(C)(C)C1=O (stereo not drawn) | 13 |
| CC(C(=O)NC1CCCC1)N(C(=O)CS(=O)CC(=O)Nc1ccc(F)cc1)c1ccc2c(c1)OCCO2 (stereo not drawn) | 13.8 |
| Cl.O=C(COc1ccc(Br)cc1CNC1CCCC1)Nc1ccccc1 | -28.2 |
| O=C(COC(=O)c1c2c(nc3ccccc13)CCCC2)Nc1ccc2c(c1)OCO2 | 13.9 |
| COc1cccc(CNC(=O)CSc2nnc3c(n2)[nH]c2ccccc23)c1 | 5.78 |
| Cc1[nH]c2ccccc2c1C(=O)CN1CCCC(C)C1 (stereo not drawn) | 16.3 |
| Cc1cc(CNC(=O)c2ccc3c(c2)OCO3)c2ccccc2n1 | 5.77 |
| COC(=O)C1(Cc2ccccc2)NC(c2ccc(F)cc2)C2C(=O)N(C)C(=O)C21 (stereo not drawn) | 4.31 |
| CCCn1nnnc1SCC(=O)c1ccc2c(c1)OCCO2 | 0.126 |
| O=C(NNC(=O)c1cc(-c2ccncc2)nc2ccccc12)c1ccccc1F | 5.8 |
| Nc1c(C(=O)O)sc2nc(-c3ccccc3)cc(-c3ccc(F)cc3)c12 | 9.86 |
| c1ccc(COc2ccccc2CNC2CCCC2)cc1 | 11.2 |
| Cc1cc(C(=O)CCl)c(C)n1-c1cccc(S(=O)(=O)N2CCOCC2)c1 | -7.11 |
| O=C(Nc1ccc(S(=O)(=O)Nc2nccs2)cc1)c1cccc(S(=O)(=O)N2CCOCC2)c1 | 10.5 |
| O=C(Nc1ccc(-n2cnnn2)cc1)c1cn2ccccc2n1 | 16.1 |
| Cc1ccc(-c2nc(SC(C)C(=O)N3CCCC3)n[nH]2)cc1 (stereo not drawn) | 16.2 |
| CC(=O)N1CCOc2ccc(S(=O)(=O)N3CCC(C(=O)Nc4ccc(C)cc4)CC3)cc21 | 15.6 |
| CCOc1ccc(N(CC(=O)Nc2ccc(C)cc2)S(=O)(=O)c2c(C)noc2C)cc1 | 2.26 |

Reference: paper PMC4336329 (PLoS ONE, 2015)
